The subject of this assay is V-C8 + BRCA2 (BRCA2-proficient hamster cells). Nature of the assay: normalised cell viability (fraction of plate median); higher = more viable cells (less toxic). The following applies: 5 µM. The method, boiled down:
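Hamster V-C8 cells with and without restored BRCA2 were exposed in 96-well plates to library drugs at 5 μM for 3 days (screen 1) or 6 days (screen 2). Cell viability was scored by resazurin assay, then median-plate normalised, averaging triplicate wells.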

Each structure is given as a SMILES string. Structures can show the parent of a compound that is named as a salt. ± gives the standard deviation of the averaged measurements. Over roughly 1,300 compounds, “normalised cell viability” has its median near 1; the lowest 2% begin near 0.15. The list shows a part of the results.

For the molecule `Fc1ccc(C(OCCN2CCN(CCCc3ccccc3)CC2)c2ccc(F)cc2)cc1`, the normalised cell viability reads like this: (treatment time: 3 days) 0.18 ± 0.0028; (treatment time: 6 days) 0.191 ± 0.0064.

Regarding `COc1ccc(CCN2CCC(Nc3nc4ccccc4n3Cc3ccc(F)cc3)CC2)cc1` [Astemizole], the normalised cell viability was determined as 0.118 ± 0.0065 (treatment time: 3 days) and 0.102 ± 0.0063 (treatment time: 6 days).

With `CC(=O)O[C@H]1C[C@H](O[C@H]2[C@@H](O)C[C@H](O[C@H]3[C@@H](O)C[C@H](O[C@H]4CC[C@@]5(C)[C@H](CC[C@@H]6[C@@H]5C[C@@H](O)[C@]5(C)[C@@H](C7=CC(=O)OC7)CC[C@]65O)C4)O[C@@H]3C)O[C@@H]2C)O[C@H](C)[C@H]1O[C@@H]1O[C@H](CO)[C@@H](O)[C@H](O)[C@H]1O` [Lanatoside C], the normalised cell viability reads like this: (treatment time: 3 days) 1.13 ± 0.13; (treatment time: 6 days) 0.854 ± 0.077.

Consider `Oc1cc(Cl)ccc1Oc1ccc(Cl)cc1Cl` [Triclosan], for which the normalised cell viability amounted to 0.941 ± 0.07 (treatment time: 3 days) and 1.07 ± 0.028 (treatment time: 6 days).

Take `C[N+]1([O-])[C@@H]2C[C@@H](OC(=O)[C@H](CO)c3ccccc3)C[C@H]1[C@@H]1O[C@@H]12` (stereo partly drawn) [Scopolamin-N-oxide hydrobromide]: the normalised cell viability by setting is: (treatment time: 3 days) 0.94 ± 0.04; (treatment time: 6 days) 1 ± 0.057.

As to `C[C@]12N[C@H](Cc3ccccc31)c1ccccc12` [Dizocilpine maleate], the normalised cell viability is, setting by setting: (treatment time: 3 days) 1.06 ± 0.074; (treatment time: 6 days) 1.11 ± 0.13.

For the molecule `CCN(CC)C(C)C(=O)c1ccccc1` (stereo not drawn) [Amfepramone hydrochloride], the normalised cell viability (treatment time: 3 days) was determined as 1.17 ± 0.066 and the normalised cell viability (treatment time: 6 days) came out at 1.11 ± 0.056.

Regarding `O[C@@H]1CCCC[C@H]1N1CCC(c2ccccc2)CC1` [L(-)-vesamicol hydrochloride], the normalised cell viability (treatment time: 3 days) came out at 1.04 ± 0.061 and the normalised cell viability (treatment time: 6 days) worked out at 1.03 ± 0.073.

For `C[C@]12CC[C@@H]3c4ccc(OC(=O)N(CCCl)CCCl)cc4CC[C@H]3[C@@H]1CC[C@@H]2O` [Estramustine], the normalised cell viability turned out to be 0.225 ± 0.0075 (treatment time: 3 days) and 0.243 ± 0.029 (treatment time: 6 days).

As to `O=[N+]([O-])c1cc([As](=O)(O)O)ccc1O` [Roxarsone], the normalised cell viability runs as follows: (treatment time: 3 days) 1.01 ± 0.034; (treatment time: 6 days) 0.879 ± 0.17.

On to `CCC1(c2ccc(N)cc2)CCC(=O)NC1=O` (stereo not drawn) [Glutethimide, para-amino], for which the normalised cell viability (treatment time: 3 days) turned out to be 0.996 ± 0.046 and the normalised cell viability (treatment time: 6 days) came to 0.935 ± 0.022.

Consider `CC[C@@]1([C@@H]2O[C@@H]([C@H]3O[C@@](O)(CO)[C@H](C)C[C@@H]3C)C[C@@H]2C)CC[C@H]([C@]2(C)CC[C@]3(C[C@H](O)[C@@H](C)[C@@H]([C@@H](C)[C@@H](OC)[C@H](C)C(=O)O)O3)O2)O1` [Monensin sodium salt], for which the normalised cell viability runs as follows: (treatment time: 3 days) 0.219 ± 0.0038; (treatment time: 6 days) 0.175 ± 0.011.

Regarding `CCN(C)C(=O)Oc1cccc([C@H](C)N(C)C)c1` [Rivastigmine], the normalised cell viability came to 1.06 ± 0.085 (treatment time: 3 days) and 0.714 ± 0.49 (treatment time: 6 days).

Consider `CN(C)C(=O)Oc1cc(OC(=O)N(C)C)cc(C(O)CNC(C)(C)C)c1` (stereo not drawn) [Bambuterol hydrochloride], for which the normalised cell viability is, setting by setting: (treatment time: 3 days) 1.04 ± 0.011; (treatment time: 6 days) 1.04 ± 0.066.

For `CCn1cc(C(=O)O)c(=O)c2cc3c(cc21)OCO3` [Oxolinic acid], the normalised cell viability (treatment time: 3 days) turned out to be 0.983 ± 0.026 and the normalised cell viability (treatment time: 6 days) stood at 1.01 ± 0.033.

Take `C[C@]12CC[C@H](O)C[C@@H]1CC[C@@H]1[C@@H]2CC[C@]2(C)C(=O)CC[C@@H]12` [Epiandrosterone]: the normalised cell viability worked out at 1 ± 0.066 (treatment time: 3 days) and 0.984 ± 0.023 (treatment time: 6 days).

With `NCC(O)c1ccc(O)cc1` (racemic) [(+,-)-Octopamine hydrochloride], the normalised cell viability runs as follows: (treatment time: 3 days) 1.04 ± 0.05; (treatment time: 6 days) 0.947 ± 0.038.

`CN1[C@@H]2CC[C@H]1C[C@@H](OC1c3ccccc3CCc3ccccc31)C2` [Deptropine citrate]: the normalised cell viability reads like this: (treatment time: 3 days) 0.931 ± 0.016; (treatment time: 6 days) 0.869 ± 0.065.

For the molecule `CCCC(C)(COC(N)=O)COC(=O)NC(C)C` (stereo not drawn) [Carisoprodol], the normalised cell viability is, setting by setting: (treatment time: 3 days) 0.992 ± 0.042; (treatment time: 6 days) 1.09 ± 0.04.

Consider `CCC1(C)CC(=O)NC(=O)C1` [Bemegride], for which the normalised cell viability (treatment time: 3 days) is 0.959 ± 0.073 and the normalised cell viability (treatment time: 6 days) is 0.969 ± 0.068.

On to `C[N+]1(C)CCCC(OC(=O)C(O)(c2ccccc2)c2ccccc2)C1` (stereo not drawn) [Mepenzolate bromide], for which the normalised cell viability reads like this: (treatment time: 3 days) 1 ± 0.038; (treatment time: 6 days) 1.05 ± 0.032.

As to `OC(c1ccccc1)(c1ccccc1)C1CCNCC1` [Azacyclonol], the normalised cell viability reads like this: (treatment time: 3 days) 0.985 ± 0.041; (treatment time: 6 days) 1.03 ± 0.042.

For `NC(=O)OCCCc1ccccc1` [Phenprobamate], the normalised cell viability came out at 1 ± 0.086 (treatment time: 3 days) and 1.06 ± 0.035 (treatment time: 6 days).

Turning to `C=CCC1(CC(C)C)C(=O)NC(=O)NC1=O` [Butalbital], the normalised cell viability (treatment time: 3 days) stood at 1.14 ± 0.098 and the normalised cell viability (treatment time: 6 days) stood at 1.04 ± 0.062.

With `O=C(CCCN1CCC(n2c(=O)[nH]c3ccccc32)CC1)c1ccc(F)cc1` [Benperidol], the normalised cell viability by setting is: (treatment time: 3 days) 1.012 ± 0.0052; (treatment time: 6 days) 1.04 ± 0.024.

For `C[C@@H]1CN([C@H]2CC[C@](C#N)(c3ccc(F)cc3)CC2)CC[C@]1(C(=O)O)c1ccccc1` [Levocabastine hydrochloride], the normalised cell viability reads like this: (treatment time: 3 days) 1.05 ± 0.013; (treatment time: 6 days) 1.05 ± 0.042.

For `COc1ccc(OC)c(C(O)C(C)N)c1` (stereo not drawn) [Methoxamine hydrochloride], the normalised cell viability runs as follows: (treatment time: 3 days) 1.01 ± 0.02; (treatment time: 6 days) 0.995 ± 0.044.

As for `CCC(=O)O[C@H]1CC[C@H]2[C@@H]3CCC4=CC(=O)CC[C@]4(C)[C@H]3CC[C@]12C` [Testosterone propionate], the normalised cell viability was 0.906 ± 0.085 (treatment time: 3 days) and 1 ± 0.1 (treatment time: 6 days).

For the molecule `C[C@]12COC(=O)C[C@@H]1CC[C@@H]1[C@@H]2CC[C@@]2(C)[C@H]1CC[C@]2(C)O` [Oxandrolone], the normalised cell viability was 1.1 ± 0.067 (treatment time: 3 days) and 1.08 ± 0.043 (treatment time: 6 days).

Source of the values: the supplement of paper PMC6609913.
